Experimental data reported in the supplement of paper PMC7125110.
± gives the standard error. This sample is rich in variants without activity.

B1: glmS ribozyme (parent)
chain: AUAAAAGCGCCAGAACUACAGAAAUGUAGUUGACGAGGAGGAGGUUUAUCGAAUUUUCGGCGGAUGCCUCCAAA

Key:
Conditions in all cases: with glucosamine-6-phosphate
glucosamine-6-phosphate [1] = variants of: B1; assay: self-cleavage kobs at 40 uM GlcN6P; higher = faster cleavage; RNA array
Method in brief: (§1)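 Tiles of sequenced MiSeq chips were imaged over ~14 h at 37 °C. On them, barcoded ribozyme variants had been transcribed in situ by E. coli RNA polymerase and were tracked via a hybridised Cy3 probe while glucosamine-6-phosphate (40 μM to 10 mM) in HEPES/KCl/Mg(OAc)2 buffer flowed in. Per-tile medians, normalised to baseline and to non-cleaving reference variants, were fit to one- or two-exponential decays for kobs, and weighted Michaelis–Menten fits gave kcat and KM.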

glucosamine-6-phosphate [2] = variants of: B1; assay: self-cleavage kobs at 640 uM GlcN6P; higher = faster cleavage; RNA array
Method in brief: as §1

glucosamine-6-phosphate [3] = variants of: B1; assay: self-cleavage kobs at 160 uM GlcN6P; higher = faster cleavage; RNA array
Method in brief: as §1

glucosamine-6-phosphate [4] = variants of: B1; assay: self-cleavage kobs at 2500 uM GlcN6P; higher = faster cleavage; RNA array
Method in brief: as §1

glucosamine-6-phosphate [5] = variants of: B1; assay: self-cleavage kobs at 10000 uM GlcN6P; higher = faster cleavage; RNA array
Method in brief: as §1

Variant | self-cleavage kobs at 40 uM GlcN6P (glucosamine-6-phosphate [1]) [s⁻¹] | self-cleavage kobs at 640 uM GlcN6P (glucosamine-6-phosphate [2]) [s⁻¹] | self-cleavage kobs at 160 uM GlcN6P (glucosamine-6-phosphate [3]) [s⁻¹] | self-cleavage kobs at 2500 uM GlcN6P (glucosamine-6-phosphate [4]) [s⁻¹] | self-cleavage kobs at 10000 uM GlcN6P (glucosamine-6-phosphate [5]) [s⁻¹]
G37U G60A | < 1e-05 | < 1e-05 |  |  | 
G37A C50U | < 1e-05 |  | < 1e-05 | < 1e-05 | 
A36C U54C A64U C67G | < 1e-05 |  |  |  | 
G37A A64C | < 1e-05 | < 1e-05 |  |  | 
G35U G43U U54A | < 1e-05 |  |  |  | < 1e-05
G35A G62A | < 1e-05 | < 1e-05 | < 1e-05 | < 1e-05 | < 1e-05
G37C C58U | < 1e-05 |  |  |  | < 1e-05
G37C U56C G66U | < 1e-05 |  |  |  | < 1e-05
A36U U54C | < 1e-05 | < 1e-05 | < 1e-05 |  | 
G35A G44U A53U C71U | < 1e-05 | < 1e-05 | < 1e-05 |  | < 1e-05
A36G G38C U55A | < 1e-05 |  |  |  | < 1e-05
G35C G38A U56A G59U | < 1e-05 |  |  |  | 
G37C G63A A64G | < 1e-05 | < 1e-05 | < 1e-05 | < 1e-05 | 
G35C G66C | < 1e-05 | < 1e-05 | < 1e-05 | < 1e-05 | 
A36U C67U C70G | 7.02e-05 ± 2.8e-05 |  |  |  | 
A36U U56G | < 1e-05 |  | < 1e-05 |  | 
G35A U65G | < 1e-05 | < 1e-05 | < 1e-05 | < 1e-05 | < 1e-05
A36U C58G C70A | 8.19e-05 ± 2.5e-05 |  | 0.000111 ± 3.1e-05 | 4.59e-05 ± 2.3e-05 | 5.18e-05 ± 1.5e-05
A36G G43A C58A G62C C68G | < 1e-05 |  |  |  | < 1e-05
G35A A39U G41U | < 1e-05 | < 1e-05 |  |  | 
G35C C61A | < 1e-05 | < 1e-05 | < 1e-05 | < 1e-05 | < 1e-05
A36U A64U | < 1e-05 | < 1e-05 | < 1e-05 | < 1e-05 | < 1e-05
A36C U46G | < 1e-05 |  |  |  | < 1e-05
C34U U55A G60U | < 1e-05 | < 1e-05 |  |  | 
G37A G44A | < 1e-05 |  | < 1e-05 |  | 

Variant | self-cleavage kobs at 40 uM GlcN6P (glucosamine-6-phosphate [1]) [s⁻¹] | self-cleavage kobs at 640 uM GlcN6P (glucosamine-6-phosphate [2]) [s⁻¹] | self-cleavage kobs at 160 uM GlcN6P (glucosamine-6-phosphate [3]) [s⁻¹] | self-cleavage kobs at 2500 uM GlcN6P (glucosamine-6-phosphate [4]) [s⁻¹] | self-cleavage kobs at 10000 uM GlcN6P (glucosamine-6-phosphate [5]) [s⁻¹]
A36G G37U G41C | < 1e-05 |  |  | < 1e-05 | < 1e-05
A36U A42G A48G | < 1e-05 |  |  | < 1e-05 | 
G35A U69A | < 1e-05 | < 1e-05 | < 1e-05 |  | 
G35A A48G | < 1e-05 | < 1e-05 | < 1e-05 | < 1e-05 | < 1e-05
G35C G40U | < 1e-05 | < 1e-05 |  | < 1e-05 | < 1e-05
G35U G62A | < 1e-05 |  |  |  | 
G35U G62U | < 1e-05 | < 1e-05 |  | < 1e-05 | < 1e-05
A36U G43U C50U | < 1e-05 |  |  |  | 
G37C A39U | < 1e-05 |  | < 1e-05 |  | 
A36C G59U | < 1e-05 |  | < 1e-05 | < 1e-05 | < 1e-05
G35C G40A A42C U45C U47C | < 1e-05 |  |  | < 1e-05 | 
G37C U56C C58U C67U | < 1e-05 |  |  |  | 
G37A C68U C70U | < 1e-05 |  |  |  | 
A36C G62C | < 1e-05 |  | < 1e-05 |  | 
A36C G62U | < 1e-05 |  | < 1e-05 | < 1e-05 | 
G37C G41A | < 1e-05 |  |  |  | < 1e-05
G35A A36C U46A | < 1e-05 |  |  |  | 
G37U G51U | < 1e-05 |  |  |  | 
G37U G44A U46C G63A | < 1e-05 |  |  |  | 
G35C U55G | < 1e-05 |  |  | < 1e-05 | < 1e-05
A36U A64C C70U | < 1e-05 |  |  |  | 
G35A A39G | < 1e-05 |  |  | < 1e-05 | < 1e-05
G37A U65G | < 1e-05 | 4.13e-05 ± 1.5e-05 |  | 0.000102 ± 1.2e-05 | 0.000191 ± 2.3e-05
G35U C71A | < 1e-05 | < 1e-05 | < 1e-05 | < 1e-05 | < 1e-05
G35U C71G | < 1e-05 | < 1e-05 |  | < 1e-05 | < 1e-05

Variant | self-cleavage kobs at 40 uM GlcN6P (glucosamine-6-phosphate [1]) [s⁻¹] | self-cleavage kobs at 640 uM GlcN6P (glucosamine-6-phosphate [2]) [s⁻¹] | self-cleavage kobs at 160 uM GlcN6P (glucosamine-6-phosphate [3]) [s⁻¹] | self-cleavage kobs at 2500 uM GlcN6P (glucosamine-6-phosphate [4]) [s⁻¹] | self-cleavage kobs at 10000 uM GlcN6P (glucosamine-6-phosphate [5]) [s⁻¹]
G37A C50G C58A C67A C71U | 4.39e-05 ± 1.4e-05 |  |  | 6.21e-05 ± 1.7e-05 | 
G35U G63A | < 1e-05 | < 1e-05 | < 1e-05 | < 1e-05 | < 1e-05
G35U G38A A39C U49A U55C | < 1e-05 |  |  | < 1e-05 | < 1e-05
A36U G43U U57G C68U | < 1e-05 |  |  |  | < 1e-05
G37A G59C | < 1e-05 | < 1e-05 |  | < 1e-05 | < 1e-05
G35U C67G C71A | < 1e-05 |  |  |  | 
G35C A39U | < 1e-05 | < 1e-05 | < 1e-05 |  | < 1e-05
G37U G38C G41A | < 1e-05 | < 1e-05 |  | < 1e-05 | 
G37U G40A | < 1e-05 | < 1e-05 | < 1e-05 |  | 
A36U G41U | < 1e-05 |  | < 1e-05 |  | < 1e-05
G37A G63U | < 1e-05 | < 1e-05 | < 1e-05 |  | 
A36G A39G G44C C68G | < 1e-05 |  |  |  | < 1e-05
A36C G44U | < 1e-05 | < 1e-05 | < 1e-05 | < 1e-05 | < 1e-05
G35A G43U U46G | < 1e-05 |  |  | < 1e-05 | < 1e-05
G37U G40U G60U | < 1e-05 | < 1e-05 |  |  | < 1e-05
G37C G43U | < 1e-05 |  | < 1e-05 | < 1e-05 | 
A36U C50U U57C C61U | < 1e-05 |  |  |  | 
A36U U54A C67A | < 1e-05 | < 1e-05 |  | < 1e-05 | < 1e-05
A36G G37U G41C U57C G59U A64G | < 1e-05 |  |  |  | < 1e-05
G35U G66U | < 1e-05 | < 1e-05 | < 1e-05 | < 1e-05 | < 1e-05
A36C U55C C68A C71A | < 1e-05 |  |  | < 1e-05 | 
A36G G41U | < 1e-05 | < 1e-05 | < 1e-05 |  | < 1e-05
G35C G38A G51A | < 1e-05 |  |  |  | < 1e-05
G35C A39C U49G A52C | < 1e-05 |  |  |  | 
G37A A39U A42G C50U | < 1e-05 |  |  |  | 

Variant | self-cleavage kobs at 40 uM GlcN6P (glucosamine-6-phosphate [1]) [s⁻¹] | self-cleavage kobs at 640 uM GlcN6P (glucosamine-6-phosphate [2]) [s⁻¹] | self-cleavage kobs at 160 uM GlcN6P (glucosamine-6-phosphate [3]) [s⁻¹] | self-cleavage kobs at 2500 uM GlcN6P (glucosamine-6-phosphate [4]) [s⁻¹] | self-cleavage kobs at 10000 uM GlcN6P (glucosamine-6-phosphate [5]) [s⁻¹]
G37U C71U | < 1e-05 | < 1e-05 |  |  | 
G35U C58A C68A | < 1e-05 | < 1e-05 |  | < 1e-05 | < 1e-05
A36C A48C | < 1e-05 | < 1e-05 | < 1e-05 |  | < 1e-05
A36C G38U C68G | < 1e-05 |  |  |  | 
G37C U47G G51A | < 1e-05 | < 1e-05 | < 1e-05 |  | 
G35C G38C G41C | < 1e-05 |  |  |  | 
G35A U56C A64U | < 1e-05 | < 1e-05 |  |  | < 1e-05
A36G U49C | < 1e-05 | < 1e-05 | < 1e-05 |  | < 1e-05
G37C A39G C50U | < 1e-05 |  |  |  | 
G35C U49A | < 1e-05 | < 1e-05 |  | < 1e-05 | 
G35C A64G C67G | < 1e-05 |  |  |  | 
A36U U46A G51A | < 1e-05 |  |  | < 1e-05 | < 1e-05
A36C U45C U47A | < 1e-05 | < 1e-05 |  | < 1e-05 | < 1e-05
A36C U46C C50U C68A | < 1e-05 |  |  |  | < 1e-05
A36U G62C A64U | < 1e-05 |  |  |  | 
G37C U54A U55C G63C U69G | < 1e-05 |  |  |  | < 1e-05
A36U G62U | < 1e-05 |  |  | < 1e-05 | < 1e-05
G37U C58U G63A | < 1e-05 |  |  |  | 
A36U U49G C50G | < 1e-05 |  |  | < 1e-05 | 
G37A C50U U65G C68G | < 1e-05 |  | < 1e-05 |  | 
A36U U45A U46C C68G C71U | < 1e-05 |  | < 1e-05 | < 1e-05 | < 1e-05
G35U U57G C61G U69A | < 1e-05 |  |  |  | < 1e-05
